# Inconclusive means that the source gave no clear call. Such entries were picked first, then a sample of the others. For some assays here: Where the call is inconclusive, the potency comes from a doubtful curve fit. The source made the active and inactive calls. Unless noted, calls come from the whole dose curve; as a rule, active = well fitted curve in the direction sought with a large enough effect; inconclusive = small, poorly fitted or top-dose-only effect, or another doubt; inactive = no such curve, though single readings can be large; an effect the other way counts as inactive or inconclusive.
# How the values were obtained:
# CRL-7250 = normal cell line; assay: Cytotoxic Profiling of Annotated Libraries Using Quantitative High-Throughput Screening (AID 1296008); settings: Five cell lines viability, CellTiter-Glo ATP luminescence, 48-72 h; max response: stronger effect = lower value; note: nearly all actives have a fitted effect of over 60% in size; note: potency is the fitted concentration of half-maximal effect; for max response: % is set by controls: 0 for no effect and ±100 for the full control effect
# In short: (§1)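 Compounds were pin-transferred onto cells and incubated 48 or 72 hr at 37 degree Celsius, 95% humidity. CellTiter-Glo was added, plates sat 10 min at room temperature, then ATP-coupled luminescence was imaged as the viability read-out.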
# HEK293 = assay: as above; settings: Five cell lines viability, CellTiter-Glo ATP luminescence, 48-72 h; max response: stronger effect = lower value
# In short: as §1
# SKOV3 = assay: Primary qHTS to identify gynecologic anti-cancer compounds using libraries of approved drugs and bioactive compounds (AID 1345084); settings: Gynecologic cancer cell panel viability, ATPlite luminescence, 48 h; series mostly up to 57.5 µM; note: nearly all actives have a fitted effect of over 55% in size; note: potency is the fitted concentration of half-maximal effect; for activity change, negative = cytotoxicity: % is set by controls: 0 for no effect and ±100 for the full control effect
# In short: (§2)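 Five-point cytotoxicity, 48 h drug exposure at 37 C, 5% CO2, on cells seeded 16 h beforehand. ATP content read by ATPlite luminescence.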
# [1] = P-glycoprotein substrates identified in KB-8-5-11 adenocarcinoma cell line, qHTS therapeutic library screen (AID 1346987); note: nearly all actives have a fitted effect of over 65% in size; note: potency is the fitted concentration of half-maximal effect; for activity change, negative = cytotoxicity: % is set by controls: 0 for no effect and ±100 for the full control effect
# In short: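 In this qHTS, P-gp-rich KB-8-5-11 cells received library compounds across a concentration range. Viability was quantified by luminescence after 72 h at 37 degree C.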
# [2] = molecular target: Cytochrome P450 2D6 (Homo sapiens) (UniProt P10635); assay: Cytochrome P450 family 2 subfamily D member 6 (CYP2D6) small molecule antagonists: luciferase biochemical (cell-free) qHTS assay (AID 1645840; active = well fitted curve in the direction sought with a large enough effect in the repeat runs; inconclusive = weak or mixed curves; inactive = no such curve, though single readings can be large; an effect the other way counts as inactive or inconclusive; note: potency is the fitted concentration of half-maximal effect; nearly all actives have a fitted effect of over 55% in size)
# In short: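 P450-Glo CYP2D6 system: proluciferin substrate converted by enzyme to luciferin, read by luminescence proportional to activity. Enzyme-substrate mix with compound 10 min at room temperature, then NADPH regeneration 1 h before detection reagent.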
# [3] = Primary qHTS for inhibitors of nuclear receptor binding SET domain protein 2 (NSD2) in an isogenic RCH-ACV NSD2 p.E1099K mutant (9B) (AID 1645876); note: nearly all actives have a fitted effect of over 70% in size; note: potency is the fitted concentration of half-maximal effect
# [4] = Primary qHTS for inhibitors of nuclear receptor binding SET domain protein 2 (NSD2) in an RCH-ACV wild type WT cells (2C) (AID 1645877); settings: activity change, negative = cell killing: at 44.9 µM (top of the series); note: potency is the fitted concentration of half-maximal effect; nearly all actives have a fitted effect of over 70% in size
# [5] = Primary redox qHTS assay for identification of artifact compounds. (AID 1845223); note: potency is the fitted concentration of half-maximal effect;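 for redox activity (% of DA3003): 0% = DMSO and 100% = reference compound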
# In short: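 Redox-cycling detection via DTT (250 uM final) oxidation coupled to Amplex Red (25 uM)/HRP (250 mU/mL) in HBSS. 15 min preincubation plus 30 min after DTT, room temperature. Ex/Em 525/598 nm; 4-parameter Hill fit against DMSO and 10 uM DA3003.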
# [6] = Primary fluorescence-based thiol-reactive (MSTI) qHTS assay for identification of artifact compounds. (AID 1845221); note: potency is the fitted concentration of half-maximal effect;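 note: thiol-reactive compounds lower the probe fluorescence signal; nearly all actives have a fitted effect of over 65% in size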
# In short: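 Thiol-reactive compounds detected by quenching of 4 uM MSTI fluorescence (525/598 nm) after 1 h room-temperature dark incubation in PBS pH 7.4, 2% DMSO. qHTS titration; percent inhibition Hill-fitted against Acetyl-MSTI/MSTI controls.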
# PA-1 = assay: Primary qHTS to identify gynecologic anti-cancer compounds using libraries of approved drugs and bioactive compounds (AID 1345084); settings: Gynecologic cancer cell panel viability, ATPlite luminescence, 48 h; series mostly up to 57.5 µM; note: nearly all actives have a fitted effect of over 55% in size; note: potency is the fitted concentration of half-maximal effect; for activity change, negative = cytotoxicity: % is set by controls: 0 for no effect and ±100 for the full control effect
# In short: as §2
# Tov-21-G = assay: as above; settings: Gynecologic cancer cell panel viability, ATPlite luminescence, 48 h; activity change, negative = cytotoxicity: at 57.5 µM (top of the series)
# In short: as §2
# [7] = system: Zika virus NS2B-NS3 protease (unlinked complex); assay: Primary screen GU Rhodamine qHTS for Zika virus inhibitors: Unlinked NS2B-NS3 protease assay (AID 1347159); note: potency is the fitted concentration of half-maximal effect; nearly all actives have a fitted effect of over 60% in size
# In short: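 Enzyme 25 nM in Tris-HCl pH 8.0 + 0.01% Tween 20; compounds up to 114 microM, 15 min RT dark; + Rhod110 substrate 1.5 microM; read t0 and 15 min; delta fluorescence → % inhibition → 4-parameter Hill fit.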
# [8] = molecular target: Cytochrome P450 2C9 (Homo sapiens) (UniProt P11712); assay: Cytochrome P450 family 2 subfamily C member 9 (CYP2C9) small molecule antagonists: luciferase biochemical (cell-free) qHTS assay (AID 1645842; active = well fitted curve in the direction sought with a large enough effect in the repeat runs; inconclusive = weak or mixed curves; inactive = no such curve, though single readings can be large; an effect the other way counts as inactive or inconclusive; note: % is set by controls: 0 for no effect and ±100 for the full control effect; nearly all actives have a fitted effect of over 55% in size)
# In short: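 P450-Glo CYP2C9 system: proluciferin substrate with enzyme in mix containing 0.4% BSA, 10 min at room temperature, then NADPH regeneration solution added and incubated 1 h at 37C. Detection reagent stopped reaction; luminescence read after 20 min as RLU.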
# Tags give direction and shape of the fitted curve.
# Chain of UniProt P10635 (P10635 whole entry, looked up): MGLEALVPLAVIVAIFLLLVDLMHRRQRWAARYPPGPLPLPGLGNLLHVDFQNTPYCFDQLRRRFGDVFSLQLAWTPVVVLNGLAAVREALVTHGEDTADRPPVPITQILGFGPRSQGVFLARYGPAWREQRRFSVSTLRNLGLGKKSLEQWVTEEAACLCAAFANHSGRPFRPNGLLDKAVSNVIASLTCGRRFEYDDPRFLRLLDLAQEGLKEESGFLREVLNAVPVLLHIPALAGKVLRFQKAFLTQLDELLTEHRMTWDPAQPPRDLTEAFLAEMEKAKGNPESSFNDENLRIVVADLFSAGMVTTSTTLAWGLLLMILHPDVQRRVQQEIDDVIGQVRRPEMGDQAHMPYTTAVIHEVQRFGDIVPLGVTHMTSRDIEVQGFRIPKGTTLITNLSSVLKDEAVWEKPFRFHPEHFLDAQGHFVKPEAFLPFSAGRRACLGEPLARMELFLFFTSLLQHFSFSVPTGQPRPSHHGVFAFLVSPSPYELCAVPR
# Chain of UniProt P11712 (P11712 whole entry, looked up): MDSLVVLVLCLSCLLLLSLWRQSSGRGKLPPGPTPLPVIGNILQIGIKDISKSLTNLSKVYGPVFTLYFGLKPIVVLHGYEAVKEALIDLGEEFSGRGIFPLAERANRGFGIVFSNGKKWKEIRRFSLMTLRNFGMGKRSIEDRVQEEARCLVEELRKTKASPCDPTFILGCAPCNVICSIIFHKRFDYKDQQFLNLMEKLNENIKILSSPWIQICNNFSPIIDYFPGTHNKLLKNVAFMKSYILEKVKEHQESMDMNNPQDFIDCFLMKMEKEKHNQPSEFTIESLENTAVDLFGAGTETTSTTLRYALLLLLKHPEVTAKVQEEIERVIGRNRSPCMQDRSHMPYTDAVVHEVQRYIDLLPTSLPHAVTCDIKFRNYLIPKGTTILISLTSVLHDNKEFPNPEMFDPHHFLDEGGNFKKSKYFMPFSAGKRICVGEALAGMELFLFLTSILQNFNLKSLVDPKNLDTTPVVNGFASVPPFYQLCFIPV
smiles,measurement,setting,value
C[C@@H]1O[C@@H](O[C@H]2[C@H](OC(=O)[C@]34CCC(C)(C)C[C@H]3C3=CCC5[C@@]6(C)C[C@H](O)[C@H](O[C@@H]7O[C@H](CO)[C@@H](O)[C@H](O)[C@H]7O)[C@@](C)(CO)C6[C@H](O)C[C@@]5(C)[C@]3(C)CC4)OC[C@H](O)[C@@H]2O)[C@H](O)[C@H](O)[C@H]1O[C@@H]1OC[C@@H](O)[C@H](O[C@@H]2OC[C@](O)(CO)[C@H]2O)[C@H]1O (some centres not stated),Potency,CRL-7250,"inconclusive: 3.09 µM [inhibitor, single point]"
same,max response,HEK293,inactive: -1.81%
same,"activity change, negative = cytotoxicity",SKOV3,inactive: 1.77% [at 6.55 µM]
C=C(F)c1sc(CNCCCNc2cc(=O)c3ccccc3[nH]2)c(C)c1Br,Potency,[1],"inconclusive: 23.1 µM [inhibitor, single point]"
same,Potency,[2],active: 1.07 µM
same,Potency,[3],"inconclusive: 8.17 µM [inhibitor, partial curve]"
same,Potency,[4],"inconclusive: 2.58 µM [inhibitor, full curve, poor fit]"
same,Potency,[5],inactive
same,Potency,CRL-7250,"inconclusive: 23.1 µM [inhibitor, single point]"
same,Potency,HEK293,active: 6.51 µM
C/C(=C\CCC(C)CCO)C(=O)OC1(C)CCC2C(C(=O)O)=COC(OC3OC(CO)C(O)C(O)C3O)C21 (configuration not stated),Potency,[6],"inconclusive: 8.22 µM [inhibitor, partial curve]"
same,Potency,CRL-7250,"inconclusive: 14.2 µM [inhibitor, single point]"
same,outcome,HEK293,inactive
same,Potency,PA-1,"inconclusive: 15.8 µM [rising, single point]"
same,Potency,SKOV3,"inconclusive: 2 µM [rising, partial curve, poor fit]"
COc1cc(C(=O)NCC2(N(C)C)CCCC2)cc(OC)c1OCc1ccccc1,Potency,[2],"inconclusive: 37.9 µM [inhibitor, single point]"
same,Potency,[3],"inconclusive: 23 µM [inhibitor, single point]"
same,Potency,[4],"inconclusive: 25.8 µM [inhibitor, single point]"
same,Potency,[6],inactive
same,Potency,CRL-7250,"inconclusive: 29.1 µM [inhibitor, single point]"
same,Potency,HEK293,"inconclusive: 20.6 µM [inhibitor, single point]"
same,Potency,Tov-21-G,inactive
C[C@@]12CC3(S(=O)(=O)O)OC(O1)[C@]1(COC(=O)c4ccccc4)[C@H]3C[C@]21O[C@@H]1O[C@H](CO)[C@@H](O)[C@H](O)[C@H]1O,Potency,[3],inactive
same,Potency,[6],"inconclusive: 9.22 µM [inhibitor, single point]"
same,max response,CRL-7250,inactive: 2.31%
same,max response,HEK293,inactive: 2.36%
same,Potency,SKOV3,inactive
C[C@H]1CC[C@@]2(OC1)O[C@H]1CC3[C@@H]4CC[C@@H]5C[C@@H](O[C@@H]6O[C@H](CO)[C@@H](O[C@@H]7O[C@H](CO[C@@H]8OC[C@@H](O)[C@H](O)[C@H]8O)[C@@H](O[C@@H]8O[C@H](CO)[C@H](O)[C@H](O)[C@H]8O)[C@H](O)[C@H]7O)[C@H](O)[C@H]6O)CC[C@]5(C)C4CC[C@]3(C)[C@H]1[C@@H]2C (some centres not stated),"activity change, negative = cytotoxicity",[1],inactive: 3.95% [at 9.29 µM]
same,Potency,[7],"inconclusive: 3.98 µM [inhibitor, full curve, poor fit]"
same,Potency,[3],"inconclusive: 6.15 µM [inhibitor, single point]"
same,redox activity (% of DA3003),[5],inactive: 17.1% [at 11.5 µM]
same,Potency,CRL-7250,"inconclusive: 6.93 µM [inhibitor, single point]"
same,Potency,HEK293,"inconclusive: 3.9 µM [inhibitor, single point]"
CCCC/C=C\CCCCCc1cc(=O)c2ccccc2n1C,Potency,[3],inactive
same,Potency,[5],inactive
same,max response,CRL-7250,inactive: -5.2%
same,max response,HEK293,inactive: -7.72%
same,Potency,Tov-21-G,inactive
CC(C)(F)CC(NC(c1ccc(-c2ccc(S(C)(=O)=O)cc2)cc1)C(F)(F)F)C(=O)NC1(C#N)CC1 (configuration not stated),Potency,[1],"inconclusive: 20.6 µM [inhibitor, single point]"
same,Potency,[5],inactive
same,max response,CRL-7250,inactive: -1.34%
same,Potency,HEK293,"inconclusive: 18.4 µM [inhibitor, single point]"
same,Potency,PA-1,inactive
same,Potency,SKOV3,"inconclusive: 0.562 µM [rising, full curve, poor fit]"
COc1ccccc1O,Potency,[8],inactive
same,Potency,[3],"inconclusive: 43.7 µM [inhibitor, single point]"
same,max response,CRL-7250,inactive: 3.64%
same,max response,HEK293,inactive: -17.2%
c1cc(NCCc2c[nH]c3ccccc23)cc(Nc2ccncc2)c1,Potency,[1],"inconclusive: 23.1 µM [inhibitor, partial curve, poor fit]"
same,Potency,[2],active: 0.477 µM
same,Potency,[3],active: 7.28 µM
same,Potency,CRL-7250,"inconclusive: 18.4 µM [inhibitor, single point]"
same,max response,HEK293,inactive: -111%
same,Potency,SKOV3,"inconclusive: 11.2 µM [cytotoxic, full curve, poor fit]"
CC(=O)OC1C(O)CC2(C)C(CCC(C)C23Cc2c(O)cc(CO)c(C=O)c2O3)C1(C)C (configuration not stated),Potency,[1],inactive
same,Potency,[7],"inconclusive: 3.16 µM [inhibitor, full curve]"
same,Potency,[3],"inconclusive: 12.6 µM [inhibitor, single point]"
same,Potency,[4],"inconclusive: 8.93 µM [inhibitor, single point]"
same,Potency,[5],"inconclusive: 10.3 µM [activator, single point]"
same,Potency,CRL-7250,"inconclusive: 10 µM [inhibitor, single point]"
same,max response,HEK293,inactive: -11.5%
same,Potency,PA-1,"inconclusive: 20 µM [cytotoxic, single point]"

# Source: PubChem BioAssay (NCATS)
